Results on 9 molecules are retold here after the supplement of paper PMC12355420.

Structures are written as SMILES. Structures can show the parent of a compound that is named as a salt. The list shows a part of the results. Repeats are few or missing, and single values can be far off.
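Further: primary screen of an FDA-approved drug library in HeLa reporter cells in 96-well format, CellMask signal normalized to DMSO-treated wells set as 1, under 0.5 deemed highly cytotoxic.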

The subject of this assay is HeLa VPS33A reporter cells. In words: relative cell viability (CellMask signal) vs DMSO (fraction of DMSO); HeLa model of a glycosaminoglycan (GAG) storage disease; KI is knock-in and KO knock-out; SDC1 is syndecan 1; higher = less cytotoxic. As to conditions: 50 µM; 24 h.
`CC(C)[C@@H]1CC[C@@H](C)C[C@H]1O` [L-Menthol] gave a relative cell viability of 1.02.

`COc1ccc(C(=O)CC(=O)c2ccc(C(C)(C)C)cc2)cc1` [Avobenzone] returned a relative cell viability of 1.03.

For `Cc1c(C(=O)Nc2ccc(N3C[C@@H](C)O[C@@H](C)C3)nc2)cccc1-c1ccc(OC(F)(F)F)cc1` [LDE225 Diphosphate], the relative cell viability was 1.03.

With `Nc1nc2c(ncn2COC(CO)CO)c(=O)[nH]1` [Ganciclovir], the relative cell viability came to 0.957.

On to `CCCCOc1cc(C(=O)OCCN(CC)CC)ccc1N` [Oxybuprocaine HCl], for which the relative cell viability was determined as 0.882.

Regarding `OC[C@H]1O[C@@H](Oc2cc(O)cc(/C=C/c3ccc(O)cc3)c2)[C@H](O)[C@@H](O)[C@@H]1O` [Polydatin], the relative cell viability is 1.03.

`NCC(=O)CCC(=O)O` [5-Aminolevulinic acid HCl] yielded a relative cell viability of 0.946.

Consider `C[C@H]1c2cccc(O)c2C(O)=C2C(=O)[C@]3(O)C(O)=C(C(N)=O)C(=O)[C@@H](N(C)C)[C@@H]3[C@@H](O)[C@@H]21` [Doxycycline HCl], for which the relative cell viability was 1.26.

In turn, `NCCC(O)(P(=O)(O)O)P(=O)(O)O` [Pamidronate Disodium] displayed a relative cell viability of 1.36.
